This note sets out measurements from US11618753B2 (priority 2018, dated 2023).

Structures are written as SMILES.

The experiment relates to MLKL phosphorylation, HT29-L23 human colorectal adenocarcinoma cells. The following applies: read-out: pMLKL HCS Cell Assay (IC50).
A word on the IC50: it is the concentration that inhibits the measured activity by half. Consider `COc1ncc(-c2cc(C(F)(F)F)c3c(N)ncnn23)cc1C(=O)NC1CN(C2CCCC2C(O)C(F)(F)F)C[C@@H]1F` (stereo partly drawn) [Example 1375, 5-[4-amino-5-(trifluoromethyl)-pyrrolo[2,1-f][1,2,4]triazin-7-yl]-N-[(3R,4S)-4-fluoro-1-[2-(2,2,2-trifluoro-1-hydroxy-ethyl)cyclopentyl]pyrrolidin-3-yl]-2-methoxypyridine-3-carboxamide], for which the IC50 worked out at 39 nM.
For the molecule `COc1ncc(-c2cc(C(F)(F)F)c3c(N)ncnn23)cc1C(=O)N[C@@H]1CN(C2CCCC2(C)O)C[C@@H]1F` (stereo partly drawn) [Example 1412, 5-[4-amino-5-(trifluoromethyl)-pyrrolo[2,1-f][1,2,4]triazin-7-yl]-N-[(3R,4S)-4-fluoro-1-(2-hydroxy-2-methylcyclopentyl)-pyrrolidin-3-yl]-2-methoxy-pyridine-3-carboxamide], the IC50 amounted to 433 nM.
For the molecule `COc1ncc(-c2cc(C(F)(F)F)c3c(N)ncnn23)cc1C(=O)NC1CN(C(=O)OCC2CC2(F)F)C[C@@H]1F` (stereo partly drawn) [Example 1457, (2,2-difluorocyclopropyl)methyl (3R,4S)-3-{5-[4-amino-5-(trifluoromethyl)pyrrolo[2,1-f][1,2,4]triazin-7-yl]-2-methoxypyridine-3-amido}-4-fluoropyrrolidine-1-carboxylate], the half-maximal inhibitory concentration (IC50) came out at 7.3 nM.
